Experimental data reported in PubChem BioAssay AID1347073 (National Center for Advancing Translational Sciences (NCATS), 2019).
Out of some 45,000 compounds screened, about 200 (0.44%) were called active. About 7% were inconclusive and are not listed. Calls follow the shape of the dose curve; as a rule, active = well fitted activation curve with a large enough effect; inconclusive = small, poorly fitted or top-dose-only effect; inactive = no such curve, though single readings can be large or run the other way. This is one part of the list.

Experiment: qHTS of TDP-43 Inhibitors: NCGC Sytravon Library Screen; also: 0% is about no effect; nearly all actives have a fitted effect of over 55% in size
Settings: yeast TDP-43 toxicity rescue, BacTiter-Glo growth, 24 h; series mostly up to 46.1 µM; growth rescue (activation): at the top concentration
Outline: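 TDP-43-expressing yeast, pregrown in raffinose, seeded at OD600 0.02 in galactose medium with compound for 24 hr at 30 deg C. Growth read by BacTiter-Glo luminescence, so rescue of toxicity appears as activation.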

Q: For `COCCN1C(=O)c2cc(C(=O)Nc3ccc(OC)c(OC)c3)ccc2C1Nc1ccc(OC)c(OC)c1` (stereo not given), which “growth rescue (activation)” value is on record?
A: inactive: 1.88%

Q: For `Cc1c(NC(=O)CN2C(=O)c3ccccc3C2=O)c(=O)n(-c2ccccc2)n1C`, which “growth rescue (activation)” value is on record?
A: inactive: 7.95%

Q: Which “growth rescue (activation)” value does the source give for `Cc1ccc(NC(=O)C2CCN(C(=O)NCc3ccccc3)CC2)cc1C` here?
A: inactive: 9.25%

Q: With `COc1ccc(C(C(=O)NCC2CCCO2)N(C(=O)Cn2nnc3ccccc32)c2ccc(NC(C)=O)cc2)cc1` (stereo not given) as the compound, how does the “growth rescue (activation)” value read?
A: inactive: 10.7%

Q: With `O=C(CC(c1cccs1)S(=O)(=O)c1ccccc1)c1ccc(F)cc1` (stereo not given) as the compound, how does the “growth rescue (activation)” value read?
A: inactive: 6.14%

Q: With `O=C(Nc1ccccc1C(=O)NC(Cc1ccccc1)C(=O)O)c1ccccc1` (stereo not given) as the compound, how does the “growth rescue (activation)” value read?
A: inactive: -6.42%

Q: For `N/N=c1\sc2ccccc2n1-c1ccccc1`, which “growth rescue (activation)” value is on record?
A: inactive: 38.6%

Q: For `O=C(O)c1ccccc1SC1CC(=O)N(c2cccc3ccccc23)C1=O` (stereo not given), which “growth rescue (activation)” value is on record?
A: inactive: -94.7%

Q: For `O=C(CSc1nc2ccccc2[nH]1)NCc1ccc(F)cc1`, which “growth rescue (activation)” value is on record?
A: inactive: 4.54%

Q: Which “growth rescue (activation)” value does the source give for `O=C(Nc1cc(S(=O)(=O)N2CCCC2)ccc1OCC(F)(F)F)c1ccc(F)cc1` here?
A: inactive: 9.73%

Q: Which “growth rescue (activation)” value does the source give for `O=C(c1ccc2c(=O)n(Cc3ccccc3)c(=S)[nH]c2c1)N1CCCC1` here?
A: inactive: 4.44%

Q: With `C/C(=N/NC(=O)CNC(=O)C(c1ccccc1)c1ccccc1)c1ccco1` as the compound, how does the “growth rescue (activation)” value read?
A: inactive: 4.04%

Q: For `CCN(CC(=O)Nc1cccc(C(C)=O)c1)S(=O)(=O)c1ccccc1`, which “growth rescue (activation)” value is on record?
A: inactive: 3.78%

Q: Which “growth rescue (activation)” value does the source give for `CCOc1ccc2c(c1)[N+](C)(C)C(C)(C)C=C2C` here?
A: inactive: -6.06%

Q: Which “growth rescue (activation)” value does the source give for `CCC(=O)N1CCN(c2ccccc2NC(=S)NC(=O)c2ccco2)CC1` here?
A: inactive: 16.1%

Q: With `CCOCCc1nnc(NC(=O)C2CC(=O)N(c3ccc(OCC)cc3)C2)s1` (stereo not given) as the compound, how does the “growth rescue (activation)” value read?
A: inactive: 2.43%

Q: Which “growth rescue (activation)” value does the source give for `CC(=O)c1cccc(S(=O)(=O)NC2CCCCCC2)c1` here?
A: inactive: 27.9%

Q: With `Cc1ccc(OCC(=O)c2cc(C)n(C)c2C)c([N+](=O)[O-])n1` as the compound, how does the “growth rescue (activation)” value read?
A: inactive: 6.51%

Q: With `COc1ccc(S(N)(=O)=O)cc1C(=O)NCC(C)(C)N1CCOCC1` as the compound, how does the “growth rescue (activation)” value read?
A: inactive: 0.661%

Q: For `Cc1ccc(C)c(N2C(=O)c3ccc(C(=O)OCC(=O)c4c(N)n(C)c(=O)n(C)c4=O)cc3C2=O)c1`, which “growth rescue (activation)” value is on record?
A: inactive: -2.58%

Q: With `CCc1nc(SCC(=O)Nc2cc(C)ccc2OC)c2c(C)c(C)sc2n1` as the compound, how does the “growth rescue (activation)” value read?
A: inactive: 10.4%

Q: With `CCOc1ccc(NC(=O)C2CC(=O)N(c3cc(C)cc(C)c3)C2)cc1` (stereo not given) as the compound, how does the “growth rescue (activation)” value read?
A: inactive: 13.5%

Q: For `CN(CCCNC(=O)CCc1cn(C)c2ccccc12)C1CCCCC1`, which “growth rescue (activation)” value is on record?
A: inactive: 7.79%

Q: Which “growth rescue (activation)” value does the source give for `O=C(CS(=O)CC(=O)NC12CC3CC(CC(C3)C1)C2)Nc1ccc(F)cc1` (stereo not given) here?
A: inactive: 9.29%

Q: For `CCOC(=O)CC1(NC(=O)C2CCC(=O)N(Cc3ccccc3OC)C2)CCCCC1` (stereo not given), which “growth rescue (activation)” value is on record?
A: inactive: 15.3%

Q: With `CCSc1nc2ccccc2n1CC(=O)O` as the compound, how does the “growth rescue (activation)” value read?
A: inactive: 6.74%

Q: Which “growth rescue (activation)” value does the source give for `Cc1cc(C)c(C#N)c(SCC(=O)N2CCCCC2)n1` here?
A: inactive: 24.8%

Q: For `O=C(COC(=O)c1cncc(Br)c1)Nc1nc(-c2ccc(F)cc2)cs1`, which “growth rescue (activation)” value is on record?
A: inactive: 34%

Q: For `NC(=O)C1CCN(C(=O)CCSc2ccc(Cl)cc2)CC1`, which “growth rescue (activation)” value is on record?
A: inactive: 5.2%

Q: Which “growth rescue (activation)” value does the source give for `COc1ccc(NC2CC(=O)N(c3ccc(C(=O)O)cc3)C2=O)cc1` (stereo not given) here?
A: inactive: -23.8%

Q: With `O=C(O)CCN1C(=O)S/C(=C\c2cccnc2)C1=O` as the compound, how does the “growth rescue (activation)” value read?
A: inactive: 12.4%

Q: Which “growth rescue (activation)” value does the source give for `COc1ccc(-n2ncc3c2ncn2nc(Cc4ccccc4)nc32)cc1` here?
A: inactive: 9.83%

Q: For `N#C/C(=C(/O)c1ccc([N+](=O)[O-])cc1)c1nc2ccccc2[nH]1`, which “growth rescue (activation)” value is on record?
A: inactive: -7.95%

Q: Which “growth rescue (activation)” value does the source give for `CCOc1ccc(CCNC(=O)COC(=O)Cn2cnc3ccccc3c2=O)cc1OCC` here?
A: inactive: 11.5%

Q: Which “growth rescue (activation)” value does the source give for `Cc1ccc(-c2noc(-c3nnn(-c4ccc(Br)cc4F)c3C)n2)cc1` here?
A: inactive: 14.1%

Q: Which “growth rescue (activation)” value does the source give for `O=c1[nH]c(Nc2ccc3c(c2)OCCO3)nnc1Cc1ccc(Cl)cc1` here?
A: inactive: -27.1%

Q: For `O=C(NNS(=O)(=O)c1ccc(F)cc1)C1CCCCC1`, which “growth rescue (activation)” value is on record?
A: inactive: 15.8%

Q: With `O=C(Nc1ccc(F)cc1)Nc1nnc(-c2ccccc2)o1` as the compound, how does the “growth rescue (activation)” value read?
A: inactive: 13.2%

Q: With `O=C(Cc1n[nH]c(=O)c2ccccc12)Nc1cccc(S(=O)(=O)N2CCCC2)c1` as the compound, how does the “growth rescue (activation)” value read?
A: inactive: 1.86%

Q: For `COc1ccc(NC(=O)c2cncn2-c2ccccc2)cc1`, which “growth rescue (activation)” value is on record?
A: inactive: 12.1%

Q: For `O=C(NNC(=O)c1cccc(C(F)(F)F)c1)c1ccc(-n2cnnn2)cc1`, which “growth rescue (activation)” value is on record?
A: inactive: 9.36%

Q: With `CC1(C(=O)NS(=O)(=O)c2ccc(C#N)cc2)CCN1C(=O)C1(c2ccc(Cl)cc2)CC1` (stereo not given) as the compound, how does the “growth rescue (activation)” value read?
A: inactive: 1.1%

Q: With `C=CCNC(=O)CN1CCC(c2nc3cc(C)c(C)cc3[nH]2)CC1` as the compound, how does the “growth rescue (activation)” value read?
A: inactive: 8.9%

Q: With `COc1cc(OC)c(NC(=O)N2CCc3cc(S(=O)(=O)N4CCC(C)CC4)ccc32)cc1Cl` as the compound, how does the “growth rescue (activation)” value read?
A: inactive: 2.88%

Q: For `CN(C)CCNC(=O)/C(=C/c1ccc(-c2cccc([N+](=O)[O-])c2)o1)NC(=O)c1ccccc1`, which “growth rescue (activation)” value is on record?
A: inactive: -5.39%

Q: For `COc1ccc(C2Nc3ccccc3C(=O)N2Cc2ccccc2)cc1CN1CCOCC1` (stereo not given), which “growth rescue (activation)” value is on record?
A: inactive: 8.61%

Q: Which “growth rescue (activation)” value does the source give for `CC1(C(=O)NS(=O)(=O)c2cccs2)CCN1C(=O)CC1CCCC1` (stereo not given) here?
A: inactive: 2.48%

Q: Which “growth rescue (activation)” value does the source give for `c1ccc2c(-c3ccc4nncn4c3)cncc2c1` here?
A: inactive: 8.36%

Q: For `O=C(O)c1ccc(NC2=C(N3CCOCC3)C(=O)c3ccccc3C2=O)cc1`, which “growth rescue (activation)” value is on record?
A: inactive: 24%

Q: Which “growth rescue (activation)” value does the source give for `COc1ccc2c(c1)c(CC(=O)OC(C)C(=O)N(C)C)c(C)n2C(=O)c1ccc(Cl)cc1` (stereo not given) here?
A: inactive: 19.8%

Q: Which “growth rescue (activation)” value does the source give for `O=C1Nc2c(c(=O)[nH]c(=O)n2-c2ccc(F)cc2)C1(NS(=O)(=O)c1ccccc1)C(F)(F)F` (stereo not given) here?
A: inactive: 0.18%

Q: With `Cc1cccc(N(C(=O)CCC(=O)Nc2ccccn2)C(C(=O)NC(C)C)c2ccc(F)cc2)c1` (stereo not given) as the compound, how does the “growth rescue (activation)” value read?
A: inactive: -7.87%

Q: With `CCc1nc2nc(C)c(NS(=O)(=O)c3ccc4c(c3)CCCC4)c(=O)n2[nH]1` as the compound, how does the “growth rescue (activation)” value read?
A: inactive: 14.5%

Q: Which “growth rescue (activation)” value does the source give for `CCNc1nc(N)nc(Oc2ccc(C(=O)OC)cc2)n1` here?
A: inactive: 28.1%

Q: Which “growth rescue (activation)” value does the source give for `Fc1ccc(/C=N/n2cnn(Cc3ccccc3Cl)c2=S)cc1` here?
A: inactive: 2.06%

Q: For `COc1ccc2c(c1OC)C(=O)OC2C/C(=N\NC(N)=O)c1ccccc1` (stereo not given), which “growth rescue (activation)” value is on record?
A: inactive: 3.31%

Q: Which “growth rescue (activation)” value does the source give for `C=CCOCCN(CCOCC=C)C1=NS(=O)(=O)c2ccccc21` here?
A: inactive: 2.35%

Q: Which “growth rescue (activation)” value does the source give for `CC1CCCN(S(=O)(=O)c2ccc(NC(=O)C3CC(=O)N(C(C)(C)C)C3)cc2)C1` (stereo not given) here?
A: inactive: 1.46%

Q: With `CCC(=O)N1CCc2cc(Br)cc(S(=O)(=O)N3CCC(C(=O)NC(C)C)CC3)c21` as the compound, how does the “growth rescue (activation)” value read?
A: inactive: -1.98%

Q: With `COC(=O)C1=C(O)/C(=C\c2ccc(CNS(=O)(=O)c3ccc(Cl)cc3)o2)N=C1C` as the compound, how does the “growth rescue (activation)” value read?
A: inactive: 8.22%

Q: For `Cc1cc(NC(=O)COC(=O)C(C)Oc2ccc(Cl)cc2Cl)no1` (stereo not given), which “growth rescue (activation)” value is on record?
A: inactive: -6.96%

Q: Which “growth rescue (activation)” value does the source give for `O=C(CCCOc1ccccc1)Nc1cccc(S(=O)(=O)N2CCOCC2)c1` here?
A: inactive: 12.3%

Q: With `CCOC(=O)c1c(-c2ccccc2)csc1NC(=O)CSc1nc(C)cc(C)n1` as the compound, how does the “growth rescue (activation)” value read?
A: inactive: 11.4%

Q: Which “growth rescue (activation)” value does the source give for `CCCCNC(=O)C1(C)CCCCN1C(=O)c1cc(C)n(C(C)(C)C)n1` (stereo not given) here?
A: inactive: 8.37%

Q: With `Cc1ccsc1CN(C(=O)COc1cccc(C)c1C)C1CCS(=O)(=O)C1` (stereo not given) as the compound, how does the “growth rescue (activation)” value read?
A: inactive: 7.37%
